Screen size: about 52,000 compounds; about 4,300 (8.3%) were called active. No stated cut-off is given here; in the data, active means survival mostly below about 52% (no sharp cut-off); inactive means mostly above about 56%. This is one part of the list.
What follows are compounds tested on DeltatarO mutant (assay: S. aureus survival, RN4220 and DeltatarO strains – OD600, teichoic acid synthesis inhibitors, primary screen (AID 463173)). Conditions: S. aureus RN4220 wild type/DeltatarO growth, OD600, 18 h, hits give low values, screened at 18.75 µg/mL (by protocol).

Compound	survival
COC(=O)c1ccc(C(=O)OC)c(NC(=O)CN(c2ccccc2)S(=O)(=O)N(C)C)c1	inactive: 70%
COc1cccc(CN(Cc2ccco2)C(c2nnnn2Cc2ccc(F)cc2)C(C)C)c1 (configuration not stated)	inactive: 82%
CCOc1ccccc1CNC(=O)C1CCCN(c2nnc(C)c3c(C)n(-c4ccccc4)nc23)C1 (configuration not stated)	inactive: 76%
Cc1c(C(=O)N2CCC(C)CC2)c(S(=O)(=O)N(Cc2ccccc2)C(C)(C)C)c(C)n1C	inactive: 95%
CN(C)NC1CCS(=O)(=O)C1 (configuration not stated)	inactive: 92%
CN1CCN(C(=O)C(=O)Nc2c3c(nn2-c2ccc(Cl)cc2)CSC3)CC1	inactive: 72%
CCc1nn(CCCC(=O)NCc2ccc(OC(C)C)cc2)c(=O)c2cc3occc3n12	inactive: 77%
COc1ccc(N2CCN(C(=O)c3cccn3-c3nnc(N4CCCC4)s3)CC2)cc1	inactive: 101%
O=C(CSc1n[nH]c(-c2ccccc2Cl)n1)NCCc1ccccc1	inactive: 87%
CCOc1cc(CNS(=O)(=O)c2ccc3c(c2)C(C)(C)C(=O)N3)cc(OCC)c1OCC	inactive: 98%
CC(NC(=O)Cn1ccc2cc(S(=O)(=O)N3CCCCCC3)ccc21)c1ccccc1 (configuration not stated)	inactive: 92%
COc1ccc(C)cc1NC(=O)Nc1nnc(N2CCCCC2)s1	inactive: 68%
CCOC(=O)C1CCCN(c2nc3c(S(=O)(=O)c4ccc(CC)cc4)nnn3c3ccc(Cl)cc23)C1 (configuration not stated)	inactive: 79%
COc1ccc(Nc2ncnc3sc4c(c23)CCCC4)cc1	inactive: 69%
O=C(NCc1ccccc1Cl)c1ccc(CS(=O)(=O)c2ccc(Br)cc2)o1	inactive: 127%
CCC(=O)Nc1sc2c(c1C#N)CC(C)(C)NC2(C)C	inactive: 81%
Cc1c(CNC2CCCCC2)c(C(=O)O)c(C)n1Cc1ccc(Cl)cc1	inactive: 84%
O=C(CSc1ncccn1)NN=C1CCCCCC1	inactive: 96%
Cc1ccc(Cn2c3ccccc3c3cnn(CC(=O)Nc4cc(Cl)ccc4C)c(=O)c32)cc1	inactive: 84%
Clc1ccc(-n2ncc3c(NC4CCCC4)ncnc32)cc1	inactive: 99%
CCN(CC)S(=O)(=O)c1ccc2c(c1)N(CC(=O)N1CCN(c3cccc(C)c3C)CC1)C(=O)CO2	inactive: 120%
Cc1cc(C)c(NC(=O)Cn2c(=O)n(CCC(=O)N3CCc4ccccc4C3)c(=O)c3ccccc32)c(C)c1	inactive: 70%
